# According to the supplement of paper PMC8728848:
# This is one part of the list.
# Legend:
# Experiment in all cases: glycan array binding signal (z-score within array); higher = stronger binding
# Conditions in all cases: glycan notation: IUPAC condensed, linker removed
# [1] = molecular target: Fuc(a1-2)Gal(b1-4)GlcNAc(b1-3)Gal(b1-4)GlcNAc(b1-2)Man(a1-3)[Fuc(a1-2)Gal(b1-4)GlcNAc(b1-3)Gal(b1-4)GlcNAc(b1-2)Man(a1-6)]Man(b1-4)GlcNAc(b1-4)GlcNAc
# Procedure, shortened: (§1)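 Negative Z-scores can be read as non-binding. The Z-score is calculated within each array and then averaged across arrays of one protein sequence at different concentrations or buffers and across linkers. Arrays, 3228 in all, were curated from the Consortium for Functional Glycomics database and kept only where the protein sequence was available.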
# [2] = molecular target: Fuc(a1-2)Gal(b1-4)GlcNAc(b1-3)Gal(b1-4)GlcNAc(b1-3)Gal(b1-4)GlcNAc
# Procedure, shortened: as §1
# [3] = molecular target: Fuc(a1-2)Gal(b1-4)GlcNAc(b1-3)GalNAc
# Procedure, shortened: as §1
# [4] = molecular target: Fuc(a1-2)Gal(b1-4)GlcNAc(b1-3)[Fuc(a1-2)Gal(b1-4)GlcNAc(b1-6)]GalNAc
# Procedure, shortened: as §1
# [5] = molecular target: Fuc(a1-2)Gal(b1-4)GlcNAc(b1-3)[Fuc(a1-3)[Gal(b1-4)]GlcNAc(b1-6)]Gal(b1-4)Glc
# Procedure, shortened: as §1
# [6] = molecular target: Fuc(a1-2)Gal(b1-4)GlcNAc(b1-6)GalNAc
# Procedure, shortened: as §1
# [7] = molecular target: Fuc(a1-2)Gal(b1-4)GlcNAc6S
# Procedure, shortened: as §1
# [8] = molecular target: Fuc(a1-2)Gal(b1-4)[Fuc(a1-3)]GlcNAc
# Procedure, shortened: as §1
# [9] = molecular target: Fuc(a1-2)Gal(b1-4)[Fuc(a1-3)]GlcNAc(b1-2)Man(a1-3)[Fuc(a1-2)Gal(b1-4)[Fuc(a1-3)]GlcNAc(b1-2)Man(a1-6)]Man(b1-4)GlcNAc(b1-4)[Fuc(a1-6)]GlcNAc
# Procedure, shortened: as §1
# [10] = molecular target: Fuc(a1-2)Gal(b1-4)[Fuc(a1-3)]GlcNAc(b1-2)[Fuc(a1-2)Gal(b1-4)[Fuc(a1-3)]GlcNAc(b1-4)]Man(a1-3)[Fuc(a1-2)Gal(b1-4)[Fuc(a1-3)]GlcNAc(b1-2)Man(a1-6)]Man(b1-4)GlcNAc(b1-4)GlcNAc
# Procedure, shortened: as §1
# [11] = molecular target: Fuc(a1-2)Gal(b1-4)[Fuc(a1-3)]GlcNAc(b1-3)Gal(b1-4)[Fuc(a1-3)]GlcNAc
# Procedure, shortened: as §1
# [12] = molecular target: Fuc(a1-2)Gal(b1-4)[Fuc(a1-3)]GlcNAc(b1-3)Gal(b1-4)[Fuc(a1-3)]GlcNAc(b1-3)Gal(b1-4)[Fuc(a1-3)]GlcNAc
# Procedure, shortened: as §1
# [13] = molecular target: Fuc(a1-2)Gal(b1-4)[Fuc(a1-3)]GlcNAc(b1-3)GalNAc
# Procedure, shortened: as §1
# [14] = molecular target: Fuc(a1-2)Gal(b1-4)[Fuc(a1-3)]GlcNAc(b1-3)[Neu5Ac(a2-6)Gal(b1-4)GlcNAc(b1-6)]Gal(b1-4)Glc
# Procedure, shortened: as §1
# [15] = molecular target: Fuc(a1-2)Gal3S(b1-4)GlcNAc
# Procedure, shortened: as §1
# [16] = molecular target: Fuc(a1-2)Gal6S(b1-3)GlcNAc
# Procedure, shortened: as §1
# [17] = molecular target: Fuc(a1-2)Gal6S(b1-3)GlcNAc6S
# Procedure, shortened: as §1
# [18] = molecular target: Fuc(a1-2)Gal6S(b1-4)Glc
# Procedure, shortened: as §1
# [19] = molecular target: Fuc(a1-2)Gal6S(b1-4)Glc6S
# Procedure, shortened: as §1
# [20] = molecular target: Fuc(a1-2)[Gal(a1-3)]Gal
# Procedure, shortened: as §1
# [21] = molecular target: Fuc(a1-2)[Gal(a1-3)]Gal(b1-3)GalNAc
# Procedure, shortened: as §1
# [22] = molecular target: Fuc(a1-2)[Gal(a1-3)]Gal(b1-3)GalNAc(b1-3)Gal(a1-4)Gal(b1-4)Glc
# Procedure, shortened: as §1
# [23] = molecular target: Fuc(a1-2)[Gal(a1-3)]Gal(b1-3)GlcNAc
# Procedure, shortened: as §1
# [24] = molecular target: Fuc(a1-2)[Gal(a1-3)]Gal(b1-3)GlcNAc(b1-2)Man(a1-3)[Fuc(a1-2)[Gal(a1-3)]Gal(b1-3)GlcNAc(b1-2)Man(a1-6)]Man(b1-4)GlcNAc(b1-4)GlcNAc
# Procedure, shortened: as §1
# [25] = molecular target: Fuc(a1-2)[Gal(a1-3)]Gal(b1-3)GlcNAc(b1-2)Man(a1-3)[Fuc(a1-2)[Gal(a1-3)]Gal(b1-3)GlcNAc(b1-2)Man(a1-6)]Man(b1-4)GlcNAc(b1-4)[Fuc(a1-6)]GlcNAc
# Procedure, shortened: as §1
# [26] = molecular target: Fuc(a1-2)[Gal(a1-3)]Gal(b1-3)GlcNAc(b1-3)GalNAc
# Procedure, shortened: as §1
# [27] = molecular target: Fuc(a1-2)[Gal(a1-3)]Gal(b1-3)GlcNAc(b1-6)GalNAc
# Procedure, shortened: as §1
# [28] = molecular target: Fuc(a1-2)[Gal(a1-3)]Gal(b1-4)Glc
# Procedure, shortened: as §1
# [29] = molecular target: Fuc(a1-2)[Gal(a1-3)]Gal(b1-4)GlcNAc
# Procedure, shortened: as §1
# [30] = molecular target: Fuc(a1-2)[Gal(a1-3)]Gal(b1-4)GlcNAc(b1-2)Man
# Procedure, shortened: as §1
binder,measurement,setting,value
rMpL (Macrolepiota procera) (protein) MSTQVSSGRTYKITNVIAGTVIDLSGEDNKSIIGYPYHSGKNQQWTFNWTGKAWTLRSASSGSYLGIEGTPAGGTRLVAVNDPFEWHIWRDEANENAFRIFVPFTNYNLDLSGYGDTTPGTPVQLWWTWEGLHQTWTIDRP,glycan array binding signal (z-score),[1],-0.171
same,glycan array binding signal (z-score),[2],-0.248
same,glycan array binding signal (z-score),[3],-0.301
same,glycan array binding signal (z-score),[4],-0.248
same,glycan array binding signal (z-score),[5],0.082
same,glycan array binding signal (z-score),[6],-0.235
same,glycan array binding signal (z-score),[7],-0.304
same,glycan array binding signal (z-score),[8],-0.314
same,glycan array binding signal (z-score),[9],-0.149
same,glycan array binding signal (z-score),[10],-0.102
same,glycan array binding signal (z-score),[11],-0.35
same,glycan array binding signal (z-score),[12],-0.297
same,glycan array binding signal (z-score),[13],0.026
same,glycan array binding signal (z-score),[14],-0.26
same,glycan array binding signal (z-score),[15],-0.327
same,glycan array binding signal (z-score),[16],-0.389
same,glycan array binding signal (z-score),[17],-0.263
same,glycan array binding signal (z-score),[18],-0.334
same,glycan array binding signal (z-score),[19],-0.428
same,glycan array binding signal (z-score),[20],-0.36
same,glycan array binding signal (z-score),[21],-0.247
same,glycan array binding signal (z-score),[22],-0.359
same,glycan array binding signal (z-score),[23],-0.235
same,glycan array binding signal (z-score),[24],-0.259
same,glycan array binding signal (z-score),[25],-0.091
same,glycan array binding signal (z-score),[26],-0.18
same,glycan array binding signal (z-score),[27],-0.297
same,glycan array binding signal (z-score),[28],-0.255
same,glycan array binding signal (z-score),[29],-0.352
same,glycan array binding signal (z-score),[30],-0.289
